# Assay results from patent publication US6448281B1 (Boehringer Ingelheim (Canada) Ltd., priority 2000, dated 2002).
# Target: hepatitis C virus RNA dependent polymerase (NS5B) (Hepacivirus hominis (Hepatitis C virus), UniProt P26663)
# Test: Inhibition of NS5B RNA dependent RNA polymerase activity (SPA, UMP-[5,6 3H] incorporation)
# Conditions: IC50 μM, Table 2
row,SMILES,IC50 [µM]
1,"CN(C)c1cccc2c(S(=O)(=O)NCCNC(=O)COc3ccc(-c4nc5cc(C(=O)N[C@@H](Cc6c[nH]c7ccc(OCC(=O)O)cc67)C(=O)O)ccc5n4C4CCCCC4)cc3)cccc12 [Entry 2129, (S)-3-(5-Carboxymethoxy-1H-indol-3-yl)-2-({1-[1-cyclohexyl-2-(4-{[2-(5-dimethylamino-naphthalene-1-sulfonylamino)-ethylcarbamoyl]-methoxy}-phenyl)-1H-benzimidazol-5-yl]-methanoyl}-amino)-propionic Acid]",1 to 5
2,COc1ccc(C(NC(=O)c2ccc3c(c2)nc(-c2ccc(O)c(O)c2)n3C2CCCCC2)C(=O)O)cc1OC (centres unmarked) [Entry 2029],10 to 25
3,Cc1nc(C)c(-c2nc3cc(C(=O)N[C@@H](Cc4c[nH]c5ccc(O)cc45)C(=O)O)ccc3n2C2CCCCC2)s1 [Entry 2123],1 to 5
4,COc1ccc(C(NC(=O)c2ccc3c(c2)nc(-c2cccc(C(=O)O)c2)n3C2CCCCC2)C(=O)O)cc1OC (centres unmarked) [Entry 2035],10 to 25

# Same assay, conditions: IC50 μM, Table 5
row,SMILES,IC50 [µM]
1,"O=C(N[C@@H](Cc1c[nH]c2ccc(O)cc12)C(=O)O)c1ccc2c(n1)nc(-c1ccoc1)n2C1CCCCC1 [Entry 5002, (S)-2-{[1-(1-Cyclohexyl-2-furan-3-yl-1H-imidazo[4,5-b]pyridin-5-yl)-methanoyl]-amino}-3-(5-hydroxy-1H-indol-3-yl)-propionic Acid]",< 1
2,"Cc1cc2c(cc1C(=O)N[C@@H](Cc1c[nH]c3ccc(O)cc13)C(=O)O)nc(-c1ccoc1)n2C1CCCCC1 [Entry 5006, (S)-2-{[1-(1-Cyclohexyl-2-furan-3-yl-6-methyl-1H-benzimidazol-5-yl)-methanoyl]-amino}-3-(5-hydroxy-1H-indol-3-yl)-propionic Acid]",1 to 5

# Same assay, conditions: IC50 μM, Table 7
row,SMILES,IC50 [µM]
1,O=C(O)c1ccc2c(c1)nc(-c1ccccn1)n2-c1ccccn1 [Entry 7009],10 to 25

# Same assay, conditions: IC50 μM, Table 22
row,SMILES,IC50 [µM]
1,CC(C)n1c(-c2ccoc2)nc2cc(C(=O)N[C@@H](Cc3c[nH]c4ccc(OCC(=O)O)cc34)C(=O)O)ccc21 [Entry 22006],< 1

# Same assay, conditions: IC50 μM, first compound table (printed title TABLE 10; Table 1)
row,SMILES,IC50 [µM]
1,O=C(N[C@@H](Cc1ccc(O)cc1)c1noc(C(F)(F)F)n1)c1ccc2c(c1)nc(-c1ccoc1)n2C1CCCCC1,5 to 10
2,"Cc1cc(CC(NC(=O)c2ccc3c(c2)nc(-c2ccoc2)n3C2CCCCC2)C(=O)O)cc(Cl)c1O (racemic) [Entry 1152, 3-(3-Chloro-4-hydroxy-5-methyl-phenyl)-2-{[1-(1-cyclohexyl-2-furan-3-yl-1H-benzimidazol-5-yl)-methanoyl]-amino}-propionic Acid]",1 to 5
3,CCOC(=O)CCNC(=O)NC1CCCC(NC(=O)c2ccc3c(c2)nc(-c2ccoc2)n3C2CCCCC2)C1 (centres unmarked) [Entry 1214],10 to 25
4,"O=C(NC(Cc1ccc(O)cc1)C(F)(F)F)c1ccc2c(c1)nc(-c1ccoc1)n2C1CCCCC1 (racemic) [Entry 1122, 1-Cyclohexyl-2-furan-3-yl-1H-benzimidazole-5-carboxylic Acid [2,2,2-trifluoro-1-(4-hydroxy-benzyl)-ethyl]-amide]",5 to 10
5,O=C(O)c1ccc(CN2CCCC(NC(=O)c3ccc4c(c3)nc(-c3ccoc3)n4C3CCCCC3)C2)cc1 (centres unmarked) [Entry 1275],5 to 10
6,O=C(O)C=Cc1ccc(CN2CCC(NC(=O)c3ccc4c(c3)nc(-c3ccoc3)n4C3CCCCC3)C2)cc1 (centres unmarked) [Entry 1277],1 to 5
7,CC(C)c1ccc(C(NC(=O)c2ccc3c(c2)nc(-c2ccoc2)n3C2CCCCC2)C(=O)O)cc1 (centres unmarked) [Entry 1001],10 to 25
8,O=C(O)COc1ccc(CN2CCC(NC(=O)c3ccc4c(c3)nc(-c3ccoc3)n4C3CCCCC3)CC2)cc1 [Entry 1286],10 to 25
9,O=C(O)c1ccc(CN[C@H]2CC[C@H](NC(=O)c3ccc4c(c3)nc(-c3ccoc3)n4C3CCCCC3)CC2)cc1 [Entry 1274],10 to 25
10,"CC(C)Nc1nc([C@H](Cc2ccc(OCC(=O)O)cc2)NC(=O)c2ccc3c(c2)nc(-c2ccoc2)n3C2CCCCC2)cs1 [Entry 1133, {4-[(S)-2-{[1-(1-Cyclohexyl-2-furan-3-yl-1H-benzimidazol-5-yl)-methanoyl]-amino}-2-(2-isopropylamino-thiazol-4-yl)-ethyl]-phenoxy}-acetic Acid]",1 to 5
11,O=C(O)COc1ccc(C[C@H](NC(=O)c2ccc3c(c2)nc(-c2ccoc2)n3C2CCCCC2)c2cscn2)cc1 [Entry 1150],1 to 5
12,COc1cccc(C(NC(=O)c2ccc3c(c2)nc(-c2ccoc2)n3C2CCCCC2)C(=O)O)c1 (centres unmarked) [Entry 1011],1 to 5
13,CCOC(=O)CCNC(=O)N1CCC(CNC(=O)c2ccc3c(c2)nc(-c2ccoc2)n3C2CCCCC2)CC1 [Entry 1212],10 to 25
14,CN(C)CCNC(=O)[C@H](Cc1ccc(O)cc1)NC(=O)c1ccc2c(c1)nc(-c1ccoc1)n2C1CCCCC1 [Entry 1117],1 to 5
15,O=C(O)c1cccc(NC(=O)N2CCC(NC(=O)c3ccc4c(c3)nc(-c3ccoc3)n4C3CCCCC3)C2)c1 (centres unmarked) [Entry 1202],1 to 5
16,"[N-]=[N+]=Nc1cc(C[C@H](NC(=O)c2ccc3c(c2)nc(-c2ccoc2)n3C2CCCCC2)C(=O)O)ccc1O [Entry 1248, (S)-3-(3-Azido-4-hydroxy-phenyl)-2-{[1-(1-cyclohexyl-2-furan-3-yl-1H-benzimidazol-5-yl)-methanoyl]-amino}-propionic Acid]",1 to 5
17,Cc1ccc(C(NC(=O)c2ccc3c(c2)nc(-c2ccoc2)n3C2CCCCC2)C(=O)O)cc1C (centres unmarked) [Entry 1010],1 to 5
18,COC(=O)[C@H](CCc1ccc(OCC(=O)O)cc1)NC(=O)c1ccc2c(c1)nc(-c1ccoc1)n2C1CCCCC1 [Entry 1033],1 to 5

# Same assay, conditions: IC50, Table 11
row,SMILES,IC50 [µM]
1,"O=C(NC(Cc1c[nH]c2ccc(O)cc12)c1ccncc1)c1ccc2c(c1)nc(-c1ccoc1)n2C1CCCCC1 (racemic) [Entry 11033, 1-Cyclohexyl-2-furan-3-yl-1H-benzimidazole-5-carboxylic Acid [2-(5-Hydroxy-1H-indol-3-yl)-1-pyridin-4-yl-ethyl]-amide]",< 1

# Same assay, conditions: IC50, Table 12
row,SMILES,IC50 [µM]
1,O=C(O)COc1ccc2[nH]cc(C[C@H](NC(=O)c3ccc4c(c3)nc(-c3ccccn3)n4C3CCCCC3)C(=O)O)c2c1 [Entry 12003],< 1
2,O=C(N[C@@H](Cc1c[nH]c2ccc(O)cc12)C(=O)O)c1ccc2c(c1)nc(-c1ccco1)n2C1CCCCC1 [Entry 12007],< 1
3,O=C(N[C@@H](Cc1c[nH]c2ccc(O)cc12)C(=O)O)c1ccc2c(c1)nc(-c1cccc(OCCO)c1)n2C1CCCCC1 [Entry 12006],< 1

# Same assay, conditions: IC50, Table 13
row,SMILES,IC50 [µM]
1,"O=C(N[C@@H](Cc1c[nH]c2ccc(O)cc12)C(=O)NCC(O)CO)c1ccc2c(c1)nc(-c1ccoc1)n2C1CCCCC1 (mixture of isomers) [Entry 13022, 1-Cyclohexyl-2-furan-3-yl-1H-benzimidazole-5-carboxylic Acid [(S)-1-(2(RS),3-Dihydroxy-propylcarbamoyl)-2-(5-hydroxy-1H-indol-3-yl)-ethyl]-amide]",< 1
2,"NC(=O)C(=O)Nc1ccc2[nH]cc(C[C@H](NC(=O)c3ccc4c(c3)nc(-c3ccoc3)n4C3CCCCC3)C(N)=O)c2c1 [Entry 13009, N-[3-((S)-2-Carbamoyl-2-{[1-(1-cyclohexyl-2-furan-3-yl-1H-benzimidazol-5-yl)-methanoyl]-amino}-ethyl)-1H-indol-5-yl]-oxalamide]",< 1

# Same assay, conditions: IC50, Table 15
row,SMILES,IC50 [µM]
1,O=C(N[C@@H](Cc1c[nH]c2ccc(O)cc12)c1cscn1)c1ccc2c(c1)nc(-c1ccccc1)n2C1CCCCC1 [Entry 15002],< 1

# Same assay, conditions: IC50, Table 16
row,SMILES,IC50 [µM]
1,CS(=O)(=O)Nc1ccc(C[C@H](NC(=O)c2ccc3c(c2)nc(-c2ccoc2)n3C2CCCCC2)C(=O)O)cc1 [Entry 16032],< 1
2,O=C(N[C@@H](Cc1ccc(O)c(O)c1)C(=O)O)c1ccc2c(c1)nc(-c1ccoc1)n2C1CCCCC1 [Entry 16015],< 1
3,"O=C(N[C@@H](Cc1ccc(OCc2nnn[nH]2)cc1)C(=O)O)c1ccc2c(c1)nc(-c1ccoc1)n2C1CCCCC1 [Entry 16022, (S)-2-{[1-(1-Cyclohexyl-2-furan-3-yl-1H-benzoimidazol-5-yl)-methanoyl]-amino}-3-[4-(1H-tetrazol-5-ylmethoxy)-phenyl]-propionic Acid]",< 1
4,O=C(N[C@@H](Cc1cc(Br)c(O)c(Br)c1)C(=O)O)c1ccc2c(c1)nc(-c1ccoc1)n2C1CCCCC1 [Entry 16041],< 1
5,O=C(C[C@H](O)C(=O)O)Nc1ccc(C[C@H](NC(=O)c2ccc3c(c2)nc(-c2ccoc2)n3C2CCCCC2)C(=O)O)cc1 [Entry 16044],< 1
6,"O=C(O)CNc1ccc(C[C@H](NC(=O)c2ccc3c(c2)nc(-c2ccoc2)n3C2CCCCC2)C(=O)O)cc1 [Entry 16010, (S)-3-[4-(Carboxymethylamino)phenyl]-2-{[1-(1-cyclohexyl-2-furan-3-yl-1H-benzoimidazol-5-yl)-methanoyl]-amino}-propionic Acid]",< 1
7,"O=CNc1ccc(C[C@H](NC(=O)c2ccc3c(c2)nc(-c2ccoc2)n3C2CCCCC2)C(=O)O)cc1 [Entry 16028, (S)-2-{[1-(1-Cyclohexyl-2-furan-3-yl-1H-benzoimidazol-5-yl)-methanoyl]-amino}-3-(4-formylaminophenyl)-propionic Acid]",< 1
8,O=C(O)CCc1ccc(C[C@H](NC(=O)c2ccc3c(c2)nc(-c2ccoc2)n3C2CCCCC2)C(=O)O)cc1 [Entry 16038],< 1
